In US12551573B2, “Compositions and methods for the targeting of PCSK9” (Scribe Therapeutics Inc., priority 2022, dated 2026):

B1: DOMAIN_19229 (protein, listed as Enhydra lutris)
chain: VFQGSLSFEDVTVDFSREEWRLLDLAQKSLYRDVMLENYFNLISVGCQVPKQEVLFSLEQEEPRMLDGEISSHNCLGGDIG
B2: DOMAIN_19821 (protein, listed as Rhinopithecus roxellana)
chain: VQEPVTFKDVAVDFTQEEWGQLDLVQRTLYRDVMLETYGHLLSVGNQIAKPEVISLLEQGEEPWSMEQACPQRTCPEWMRN
B3: DOMAIN_19460 (protein, listed as Monodelphis domestica)
chain: FQASVTFKDVAVDFTWEEWRLLDPPQKELFWEVMLENYRNLVCLGLADSNKDVMMSKLESGEPHWIPTGGVLRSCWPGWES
B4: DOMAIN_19476 (protein, listed as Aotus trivirgatus)
chain: KPGAVSFADVAVYFSPEEWGCLRPAQRALYRDVMRETYGHLGALGFPGPKPALISWMEQESEAWSSAAQDPEKGENLGGAR
B5: DOMAIN_13284 (protein, listed as Phascolarctos cinereus)
chain: QQGSVTFRDVAVDFTLEEWGHLDPFQKELYRDVMLENFRNLVCLGLTVSKPDVIHQLEQGEAPWIPEGESPRNSFAGCASD
B6: DOMAIN_13346 (protein, listed as Oryctolagus cuniculus)
chain: SPESVAFEDVAVYFTKKEWASLLPAQRALYKEVMLENYGMVASLAPPPISKPALISQLEQGKEPWFTRPQGALNRRARRVV
B7: DOMAIN_13574 (protein)
chain: SWASVVFEDVAVNFTPEEWALLNRGQRKLYRDVMLETCRNLSAVEKRKFHSSGDLTRMQEGLLRSPLVESVCERIEGDPCG
modifications: Puma concolor
B8: DOMAIN_13363 (protein)
chain: SRKPVSFADVAVYFSPEEWGCLRPVQRALYRDVMRETYGHLGALGFQDTKPALISWMEEEAELWGSDARDPELGECLSEDT
modifications: Phyllostomus discolor
B9: DOMAIN_13293 (protein, listed as Myotis lucifugus)
chain: VKFADVAVYFSPEEWGCLRPAQRALYRDVMRENYGHLGALGCAGPKPALISWLERNTEDWEPAALDPQDCPRGLMVQRKWP
B10: DOMAIN_13387 (protein, listed as Sapajus apella)
chain: SQDLVTFKDVAIDFSQEEWQWMNPAQKRLYRSMMLENYQSLVSLGLCVSKPYVISLLEQGREPWEMTSEMTRSPFSDWESI
B11: DOMAIN_13171 (protein, listed as Phascolarctos cinereus)
chain: SQIPLTFQDVAVDFTWEEWGLLEPSQKDMYWDVMLENYENFVSLGGIPVSFPDVISQMERIEAPWMTERGVLVSAFLDSPN
B12: DOMAIN_13486 (protein)
chain: PQEPVTFEDVAVLFTPEEWMFLDSAQRSLYRDVMLENYRNLASVGDQLGKFSSFSHLEQGEEWWPTERRVFPGSCPEPSLP
modifications: Puma concolor
B13: DOMAIN_13609 (protein, listed as Phascolarctos cinereus)
chain: GEEAVTFRDVALDFTWEEWGCLSAAQRELYKDVMLENYRNLVSLGLPGPKPGLISWLEGEEEPHPWDSLVHAARSTSLSKA
B14: DOMAIN_13325 (protein, listed as Macaca fascicularis)
chain: FQGSVTFEDVAIAFSQQEWESLDSSQRGLYRDVMLENYRNLVSMAGHSLSKPHVIALLERWKEPKVTERKDGRRWCTDLQL
B15: DOMAIN_13565 (protein, listed as Phascolarctos cinereus)
chain: SAASVTFRDVAVDFSREEWSRLDAAQRALYRDVMWETYENLVSTGIPVSRLDVISLLAKQEAQWTPEEVPGWTSPDSFSEE
B16: DOMAIN_13339 (protein)
chain: QAEVTFEDVAVLFSREEWGRLGPTQRGLYRDVMLETYRNLVSLGAGRAGPKPGVITQLERGDEPWVLDAQGAKGKGRPRVS
modifications: Puma concolor
B17: DOMAIN_13333 (protein, listed as Phascolarctos cinereus)
chain: LRESVTFKDVAVDFTGEEWRRLDPAQRALYRDVMLENYENLVSLGLPVSKLDVISLLERGEAPWWLEGGGLQSPCSDALSQ
B18: DOMAIN_13648 (protein, listed as Oryctolagus cuniculus)
chain: QAQEVLMFDDVAVRFTWEEWQLLNPAQKALYRDVMLENYRSLVSVGWRASKPDLLSQLERGEPWTIEGENHCGTPPEIWKA
B19: DOMAIN_13417 (protein, listed as Ailuropoda melanoleuca)
chain: QEPVTFEDVAVYFTQNQWAKLDPTQRALYREVMLENYANVASLGVAFPFPKPDLVSQLERGEVPWGPDPWEAEVLRGICPG
B20: DOMAIN_13439 (protein, listed as Sapajus apella)
chain: FQGSISFKDVTVGFTQEEWQHLDPSQRALYRDVTLENYSNLVSVGYCVHKPEVIFRLEQGEEPWRLEEEFPSQSFPEVWTA
B21: DOMAIN_13125 (protein, listed as Macaca fascicularis)
chain: HQEMVTFEDVAVHFTKTEWTGLSPAQRALYRSVMLENFGNLTALGYPVPKPALISLLEGGDMAWGLEAQDDAPAERTKNIC
B22: DOMAIN_13379 (protein, listed as Phascolarctos cinereus)
chain: CKESVTFKDVAVEFTWEEWVHLNSSQKTLYRDVMLENYRNLVSLGFAVSKPDVIYQLERKEASWIPGADIPRSSCPESKEF
B23: DOMAIN_13470 (protein, listed as Phascolarctos cinereus)
chain: PQEPVTFKDVAVDFSQEEWGLLGPAQRHLYRDVMLENYRNLVSLGLILAKPEVVCHLEQGGELWKPEHGVLCSGDGELWVR
B24: DOMAIN_13537 (protein, listed as Ailuropoda melanoleuca)
chain: LQGLLTFRDVAIEFSQEEWGCLSHTQRELYRDVMLENYGHLLFSGLIASKPDLVSCLEQKKEPWDLKRKKTVAIHPVYELK
B25: DOMAIN_13562 (protein, listed as Phascolarctos cinereus)
chain: RQGSVTFQDVAVDFSWEEWGRLGPTQKELYREVMLENYRNLVCLGLEVSKPDVVYQLERGEAPWMPEGAVRRSCSQNWGAR
B26: DOMAIN_13509 (protein, listed as Phascolarctos cinereus)
chain: QQGSVTFQDVAVDFSWEEWGHLGPTQKELYREVMLENYGNLVCLGLAVSSPDVVCQLERGEGPWMPEGDAPGSSRAGSSKH
B27: DOMAIN_13501 (protein, listed as Macaca fascicularis)
chain: SQGSVTFRDVAIDFSQEEWKWLQPAQRDLYRCVMLENYGHLVSLGLSISKPDVVSLLEQGKEPWLGKRNVNRDLFSVSESS
B28: DOMAIN_13610 (protein, listed as Phascolarctos cinereus)
chain: HQGSVTFGDVAVDFSQDEWGHLDPAQKELYREVMLENYGNLVCLGLAVSRPHVIEQLERGEAPWLPRGAVPRSCDLDWMTR
B29: DOMAIN_13282 (protein, listed as Phascolarctos cinereus)
chain: PQASVTFEDVAVYLTQEEWGHLEPAQRGLYRDVMLENYGNVVSLGFPVSKPDVILQLELRGEPWFLDMQGTEGREILRDCE
B30: DOMAIN_13332 (protein, listed as Phascolarctos cinereus)
chain: PQESVTFRDVAVDFTWEEWGQLDPSQKELYREVMLENYGNLACLGLAVSKPDVILQLERGEIPWMSERKVPEGICPDWEAR
B31: DOMAIN_13644 (protein, listed as Phascolarctos cinereus)
chain: QASVTFRDVAVDFTGEEWRCLEPAQRALYRDVMLETYENLVFLGLSVPISKLDLIFLLERGGALSRPMGRVPSDSCPDSFI
B32: DOMAIN_13601 (protein, listed as Macaca fascicularis)
chain: SYEGSVSFRDVAINFSREEWQHLDLSQRNLYRDVMLETCSHLLSVGYQVPKPEVVMLEQGKEPWALQGERPRQSCPGEKLW
B33: DOMAIN_13536 (protein, listed as Gorilla sp.)
chain: RPGAVSFADVAVYFSPEEWECLRPAQRALYRDVMRETFGHLGALGFSGPKPAFISWVEGEVEAWSPESQDPDGESSAAFSR
B34: DOMAIN_13591 (protein, listed as Lynx canadensis)
chain: AHGLVMFKDVAIDVSQEEWECLNPTQRSLYKDVMLENYSNLVSLGLSISKPAVISSLEQGKEPWMVVREVTGEQCPDLVSR
B35: DOMAIN_13193 (protein, listed as Sapajus apella)
chain: KPGAVSFADVAVYFSPEEWGCLRPAQRALYRDVMRETYGHLGALGFPGPKPALISWMEQESEAWSSAAQDPEKGESLGGAR
B36: DOMAIN_13364 (protein, listed as Macaca fascicularis)
chain: KPRTVSFADVAVYFSREEWGCLRPAQRALYRDVMRETYGHLGALGFPGPKPALISWMEQETEAWSPAAQDPEKGERLGGAR

System: HBEGF locus
Type: cell-based, human
Conditions: high-throughput screen of dXR repression of the HBEGF gene; change in abundance of each domain in the library before and after diphtheria toxin selection

In order of rising “Log2 (fold change)” value:
1. B2  3.583
2. B3  3.995
3. B1  4.0294
4. B4  4.1343

Same assay, conditions: repressor domain in dXR, repression of the HBEGF gene; abundance of domain in library after vs before diphtheria toxin selection

In order of falling “Log2 (fold change)” value:
1. B35  3.8948
2. B25  3.7608
3. B23  3.7598
4. B19  3.7056
5. B36  3.5606
6. B29  3.5504
7. B12  3.4895
8. B33  3.3269
9. B24  3.3265
10. B22  3.2967
11. B16  3.2731
12. B31  3.2677
13. B34  3.215
14. B21  3.2101
15. B28  3.1925
16. B13  3.1787
17. B18  3.1393
18. B7  3.1114
19. B5  3.0903
20. B11  3.0052
21. B15  2.994
22. B17  2.9787
23. B6  2.9551
24. B10  2.8731
25. B27  2.8162
26. B26  2.8053
27. B30  2.685
28. B9  2.5884
29. B20  2.5091
30. B32  2.4865
31. B14  2.4051
32. B8  2.2178
